Results as given in PubChem BioAssay (Tox21).
Inconclusive means that the source gave no clear call. Such entries were picked first, then a sample of the others. For some assays here: Potencies beside an inconclusive call are fits to weak or partial responses and may not hold up. The source made the active and inactive calls. Unless noted, calls come from the whole dose curve; as a rule, active = well fitted curve in the direction sought with a large enough effect in the repeat runs; inconclusive = weak or mixed curves; inactive = no such curve, though single readings can be large; an effect the other way counts as inactive or inconclusive.

How the values were obtained:
[1] = qHTS assay to identify small molecule agonists of H2AX - cell viability counter screen (AID 1224847; calls by dose curve; note: nearly all actives have a fitted effect of over 30% in size; note: potency is the fitted concentration of half-maximal effect)
Procedure, shortened: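 Cells plated first: CHO-K1, 1000 per well in 10% FBS medium, incubated overnight at 37C. Then 15-point compound titration added (final DMSO 0.76%) for 3 hr. Finally CellTiter-Glo added and luminescence read.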

[2] = qHTS RealTime-Glo MT Cell Viability Assay in HEK293 cells - 32 hour (AID 1224868); note: nearly all actives have a fitted effect of over 50% in size; note: potency is the fitted concentration of half-maximal effect
Procedure, shortened: (§1)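 Quantitative high-throughput screen of the Tox21 10K library in HEK293: cells and RealTime-Glo reagents plated together, compound added at 5 h, luminescence monitored through 40 h at 37 C.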

[3] = qHTS RealTime-Glo MT Cell Viability Assay in HEK293 cells - 40 hour (AID 1224874); details: RealTime-Glo luminescence; max response: hits give low values; note: potency is the fitted concentration of half-maximal effect; nearly all actives have a fitted effect of over 50% in size
Procedure, shortened: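 Cells were seeded together with NanoLuc luciferase and a prosubstrate that viable cells reduce to a luciferase substrate. After a 5 h incubation at 37 C/5% CO2, compounds were added and luminescence was measured repeatedly during 40 h of treatment.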

[4] = A CellTox Green Cytotoxicity Assay to monitor cytotoxicity in HepG2 cells - 16 hour (AID 1224876); note: potency is the fitted concentration of half-maximal effect; nearly all actives have a fitted effect of over 45% in size
Procedure, shortened: (§2)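 Read-out is fluorescence of a cyanine dye excluded from live cells that stains DNA of dead HepG2 cells, with signal proportional to cytotoxicity. Plates were read at 0, 8, 16, 24, 32 and 40 h after compound addition.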

[5] = A CellTox Green Cytotoxicity Assay to monitor cytotoxicity in HepG2 cells - 24 hour (AID 1224878); note: potency is the fitted concentration of half-maximal effect; nearly all actives have a fitted effect of over 45% in size
Procedure, shortened: as §2

[6] = qHTS RealTime-Glo MT Cell Viability Assay in HEK293 cells - 16 hour (AID 1224872); note: potency is the fitted concentration of half-maximal effect; nearly all actives have a fitted effect of over 50% in size
Procedure, shortened: as §1

[7] = qHTS RealTime-Glo MT Cell Viability Assay in HepG2 cells - 8 hour (AID 1224873); note: potency is the fitted concentration of half-maximal effect; nearly all actives have a fitted effect of over 55% in size
Procedure, shortened: (§3)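 HepG2 cells (600/well) mixed with RealTime-Glo MT reagent, settled 5 h at 37 C/5% CO2 before compound addition. Nonlytic NanoLuc luminescence from viable-cell prosubstrate reduction read repeatedly during 40 h treatment at 37 C.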

[8] = qHTS RealTime-Glo MT Cell Viability Assay in HepG2 cells - 40 hour (AID 1224870); note: % is set by controls: 0 for no effect and ±100 for the full control effect; nearly all actives have a fitted effect of over 50% in size
Procedure, shortened: as §3

[9] = A CellTox Green Cytotoxicity Assay to monitor cytotoxicity in HEK293 cells - 40 hour (AID 1224871); note: nearly all actives have a fitted effect of over 45% in size; note: potency is the fitted concentration of half-maximal effect
Procedure, shortened: (§4)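 Nonlytic real-time cytotoxicity: HEK293 + CellTox Green reagent plated, 5 h preincubation, pintool compound addition (23 nL in DMSO), 37 C for 40 h, fluorescence measured at successive time points.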

[10] = A CellTox Green Cytotoxicity Assay to monitor cytotoxicity in HEK293 cells - 24 hour (AID 1224875); note: potency is the fitted concentration of half-maximal effect; nearly all actives have a fitted effect of over 45% in size
Procedure, shortened: as §4

[11] = A CellTox Green Cytotoxicity Assay to monitor cytotoxicity in HEK293 cells - 32 hour (AID 1224881); note: nearly all actives have a fitted effect of over 40% in size; note: potency is the fitted concentration of half-maximal effect
Procedure, shortened: as §4

[12] = qHTS assay to identify small molecule agonists of the estrogen related receptor (ERR) signaling pathway from Tox21 library (AID 1224849; calls by dose curve; note: % is set by controls: 0 for no effect and ±100 for the full control effect; nearly all actives have a fitted effect of over 15% in size); details: ERR reporter cell line, ONE-Glo luciferase, 18 h; at 92.4 µM (top of the series)
Procedure, shortened: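 ERR cells, 6 h pre-incubation 37 C/5% CO2; cpd in DMSO pinned; 18 h 37 C; ONE-Glo added, 30 min RT; luminescence read. Agonist mode, qHTS.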
Tags give direction and shape of the fitted curve.

CCN(CC)CCOc1ccc(Cc2ccccc2)cc1
Potency [1]: inactive
Potency [2]: inconclusive: 23.9 µM [cytotoxic, partial curve]
Potency [3]: inconclusive: 23.9 µM [cytotoxic, single point]
Potency [4]: inconclusive: 26.8 µM [activator, single point]
Potency [5]: inconclusive: 26.8 µM [activator, single point]

CCN(Cc1c(F)cccc1Cl)c1c([N+](=O)[O-])cc(C(F)(F)F)cc1[N+](=O)[O-]
Potency [1]: inconclusive: 16 µM [cytotoxic, full curve]
Potency [2]: active: 49 µM
Potency [6]: active: 27.5 µM
Potency [7]: inconclusive: 38.9 µM [falling, partial curve]

CCCCCCCC/C=C\CCCCCCCC(=O)OCC
Potency [1]: inactive
Potency [2]: inactive

CC(C)c1nc(CN(C)C(=O)N[C@H](C(=O)N[C@@H](Cc2ccccc2)C[C@H](O)[C@H](Cc2ccccc2)NC(=O)OCc2cncs2)C(C)C)cs1
Potency [1]: inconclusive: 61.9 µM [cytotoxic, single point]
Potency [2]: active: 21.3 µM
Potency [8]: inactive
Potency [9]: inconclusive: 26.8 µM [activator, single point]
Potency [6]: inconclusive: 21.3 µM [cytotoxic, partial curve]
Potency [3]: active: 21.3 µM
Potency [10]: inconclusive: 26.8 µM [activator, single point]
Potency [11]: inconclusive: 26.8 µM [activator, single point]

O=C(O)CCCCCCCCCCCBr
Potency [1]: inactive
activity change, positive = activation [12]: inconclusive: 20.6%
Potency [9]: inactive
Potency [11]: inactive
